# The whole screen tested about 310,000 compounds, of which about 14,000 (4.5%) showed an effect of 50% or more. Effects have a minus sign here. The list shows a part of the results.
# Target: human ether-à-go-go-related gene (hERG) potassium channel (human, UniProt Q12809)
# Experiment: primary screen, population patch clamp on CHO cells stably expressing hERG
# 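Note: peak tail current of the secondary pulse compared with the same well before compound.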
# Sequence of human ether-à-go-go-related gene (hERG) potassium channel (Q12809 whole entry, looked up): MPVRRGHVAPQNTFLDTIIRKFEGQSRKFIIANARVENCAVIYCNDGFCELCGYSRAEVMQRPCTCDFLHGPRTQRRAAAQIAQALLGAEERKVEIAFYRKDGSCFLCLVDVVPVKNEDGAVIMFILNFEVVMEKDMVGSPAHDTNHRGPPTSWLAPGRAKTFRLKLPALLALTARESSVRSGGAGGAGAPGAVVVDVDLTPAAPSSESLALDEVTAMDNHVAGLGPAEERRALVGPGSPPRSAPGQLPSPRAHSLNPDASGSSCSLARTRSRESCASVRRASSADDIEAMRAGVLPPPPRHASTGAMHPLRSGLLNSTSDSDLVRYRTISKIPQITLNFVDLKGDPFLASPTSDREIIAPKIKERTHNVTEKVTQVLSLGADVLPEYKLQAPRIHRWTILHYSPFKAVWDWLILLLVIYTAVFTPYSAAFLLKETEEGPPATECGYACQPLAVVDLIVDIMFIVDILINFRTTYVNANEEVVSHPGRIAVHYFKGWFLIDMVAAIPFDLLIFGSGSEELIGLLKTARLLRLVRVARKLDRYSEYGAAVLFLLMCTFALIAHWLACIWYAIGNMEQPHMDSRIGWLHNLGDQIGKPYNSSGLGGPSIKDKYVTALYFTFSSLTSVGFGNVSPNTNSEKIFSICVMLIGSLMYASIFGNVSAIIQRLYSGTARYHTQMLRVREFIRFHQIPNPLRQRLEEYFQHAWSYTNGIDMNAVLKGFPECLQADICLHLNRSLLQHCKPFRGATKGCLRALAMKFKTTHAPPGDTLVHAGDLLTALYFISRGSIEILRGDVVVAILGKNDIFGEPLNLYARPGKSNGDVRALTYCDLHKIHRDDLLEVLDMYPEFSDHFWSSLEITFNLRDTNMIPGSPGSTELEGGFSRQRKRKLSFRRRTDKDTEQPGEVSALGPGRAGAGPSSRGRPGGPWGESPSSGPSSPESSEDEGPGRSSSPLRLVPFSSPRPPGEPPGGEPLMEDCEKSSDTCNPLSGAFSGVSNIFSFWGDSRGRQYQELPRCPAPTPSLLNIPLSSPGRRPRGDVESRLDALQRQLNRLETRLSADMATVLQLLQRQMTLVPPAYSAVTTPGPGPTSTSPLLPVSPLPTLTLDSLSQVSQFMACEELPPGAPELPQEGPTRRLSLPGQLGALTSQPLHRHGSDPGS
row,SMILES,"hERG current change (%, negative = inhibition) at 10uM [%]"
1,O=C(/C=C/c1ccccc1)C1=C(O)C(=O)N(CCO)C1c1ccc2c(c1)OCO2 (stereo not drawn),5.2
2,COc1ccc(S(=O)(=O)N/N=C(/C)c2ccc(Cl)cc2)cc1,7.01
3,Cc1ccc(/C=C/C(=O)c2ccc(N3CCOCC3)cc2)s1,10.5
4,Cc1ccc(Cl)cc1N1CCN(C(=O)C2CCCN(S(=O)(=O)c3cnc[nH]3)C2)CC1 (stereo not drawn),-11.3
5,CCCNC(=O)Cn1nc(C(F)(F)F)c2c1CCCC2,9.29
6,C=C1C(C(=O)N2CCOCC2)C1C(=O)N1CCOCC1 (stereo not drawn),5.16
7,COc1ccc(CCN2C(=O)CC(Cc3ccc(Br)cc3)C2=O)cc1OC (stereo not drawn),-37.7
8,Cc1ccc(S(=O)(=O)N(C)c2ccc3sc(C)nc3c2)cc1,-48.6
9,Cc1ccc2nc(NC(=O)c3ccc(NS(=O)(=O)c4cccs4)cc3)sc2c1,6.32
10,CCN(c1ccccc1)S(=O)(=O)c1cccc(C(=O)N(C)CCOc2ccccc2)c1,-3.95
11,CS(=O)(=O)Nc1ccc(C(=O)Nc2ccc3ccccc3c2)cc1,11.2
12,COc1ccc(-c2[nH]ncc2CN2CCCCCCC2)c(OC)c1,-54.7
13,Cn1c(CNC(=O)CNC(=O)c2ccc(F)cc2)cc(=O)n(C)c1=O,-8.46
14,Br.N=C1CCCN1CC(=O)c1cccs1,-17.1
15,CC(C)c1nnc(NC(=O)CCC(=O)NCc2ccc(F)cc2)s1,21.3
16,CC(C)Oc1ccc(/C(O)=C2/C(=O)C(=O)N(CCN3CCNCC3)C2c2ccc(C(C)C)cc2)cc1 (stereo not drawn),25.3
17,C=CCn1c(SCC(=O)Nc2cccnc2Cl)nnc1-c1ccc(C(C)(C)C)cc1,-31.7
18,O=C(Cc1ccccc1)NNc1ccc2ccccc2c1,1.32
19,Cn1c(-c2cccc3ccccc23)n[nH]c1=S,21.9
20,CCc1ccc(C2=NN(CCC(=O)NC(C)CCc3ccccc3)C(=O)CC2)cc1 (stereo not drawn),-27.9
21,COC(=O)c1ccc(Cn2cc([N+](=O)[O-])cn2)cc1,-2.83
22,Cc1ccccc1Nc1nnc(SCc2nc3ccccc3c(=O)[nH]2)s1,8.75
23,COc1ccc(CC(=O)Nc2cccc(-c3cn4ccccc4n3)c2)cc1,-18.1

row,SMILES,"hERG current change (%, negative = inhibition) at 10uM [%]"
1,COc1cccc(-c2noc(CCCC(=O)N3CCOCC3)n2)c1,-5.72
2,COc1ccc(C2SCCN2C(=S)Nc2cccc(C(F)(F)F)c2)cc1 (stereo not drawn),10.9
3,O=C(O)CCNS(=O)(=O)c1ccccc1,-2.72
4,Cc1ccccc1OCCC(=O)Nc1c(C)n(C)n(-c2ccccc2)c1=O,-14.1
5,CCCNC(=O)c1cccc(Cn2nc(C)c(Br)c2C)c1,-6.12
6,Cc1ccc(C(C(=O)NCC2CCCO2)N(C(=O)c2snc(C(N)=O)c2N)c2ccccc2F)o1 (stereo not drawn),-12.9
7,COc1ccc(Cn2c(=N)c(C(=O)NC3CCCCC3)cc3c(=O)n4ccccc4nc32)cc1,-68.9
8,CCN(CC)S(=O)(=O)c1cc(C(=O)OCC(=O)NC(=O)c2cccn2C)ccc1C,-4.56
9,COc1ccc(C(=O)CSc2nnc(CCc3ccccc3)n2-c2ccccc2)cc1,-7.8
10,Cc1ccc(S(=O)(=O)Nc2ccc(N3CCCCC3)cc2)cc1,-0.401
11,C=CCC(NC(=O)Cc1ccccc1)C(=O)NCCC (stereo not drawn),21.3
12,CCOCCN(C(=O)COC)c1cccc(OC)c1,-7.45
13,CCN1CCN(Cc2cccnc2)CC1,17.1
14,COc1cc2c(cc1[N+](=O)[O-])n(C(C)C)c(=O)n2C(C)C,-40.3
15,CCn1c(=O)cc(OCC(=O)Nc2ccc3c(c2)OCCO3)c2ccccc21,10.7
16,COc1ccccc1NC(=O)Nc1ccc2c(c1)OCCO2,22.2
17,COc1cccc(NP(=O)(Oc2ccccc2Cl)Oc2ccccc2Cl)c1,1.5
18,Cc1ccc(NS(=O)(=O)c2ccc(CCC(=O)N3CCOCC3)cc2)cc1,-12.9
19,COc1ccc(Nc2nc(C)cc(C)c2C(N)=O)cc1,-0.439
20,CCOC(=O)c1[nH]c(C)c(C(=O)Nc2ccc(C)c(Cl)c2)c1C,17.9
21,Cc1ccc(C)n1-n1c(C)nc2sc3c(c2c1=O)CCCCC3,-7.15
22,Cc1cc(NC(=O)Nc2ccccc2[N+](=O)[O-])no1,7.56
23,COC(=O)c1sc2ccccc2c1-n1cccc1C(=O)C(=O)Nc1ccccc1,4.22

row,SMILES,"hERG current change (%, negative = inhibition) at 10uM [%]"
1,COc1cc2c(cc1OC)/C(=C/C(=O)c1ccc(NC(C)=O)cc1)NCC2,14.3
2,Cc1c(NC(=O)CSc2nncn2-c2ccccc2)c(=O)n(-c2ccccc2)n1C,26.6
3,COc1cc(C(c2c(O)cc(C)[nH]c2=O)c2c(O)cc(C)[nH]c2=O)ccc1O,-2.99
4,COC(=O)CNC(=O)CN1C(=O)NC2(CCCc3ccccc32)C1=O (stereo not drawn),11.3
5,O=C(O)c1ccc(N/N=C/c2ccc3c(c2)OCO3)cc1,17.8
6,CCOC(=O)c1sc2nc(NC(=O)C3CCCCC3)sc2c1C,7.61
7,Cc1ccc(S(=O)(=O)NCCC(=O)NCc2ccc(Cl)cc2)cc1C,11.4
8,CCn1c(SCC(=O)NC2CCCCC2)nc2c(c1=O)SC(C)C2 (stereo not drawn),-2.82
9,CC1(C)CC(=O)C2=C(C1)Nc1ccccc1NC2c1cc(Cl)ccc1O (stereo not drawn),7.11
10,COC(=O)CSc1nc2ccccc2n1CC(=O)N(C(C)C)C(C)C,-40.1
11,Nc1nnnn1/N=C/c1cc([N+](=O)[O-])ccc1O,17.9
12,CCOc1ccc(S(=O)(=O)N2CCOCC2)cc1NC(=O)CSCC(=O)Nc1cccc(C)c1,-11.4
13,CCCC(=O)Nc1ccc(C(=O)NCC2CCCO2)cc1 (stereo not drawn),-15.7
14,COc1ccc(NC(=O)c2nn(C)cc2[N+](=O)[O-])cc1,17.5
15,COc1ccc(C2CCCN2C(=S)Nc2ccc(C)cc2Cl)cc1OC (stereo not drawn),-13.6
16,Nc1c(Cl)ncnc1NCCO,21.3
17,CCc1ccc(NC(=O)c2ccc(F)c(S(=O)(=O)N(CC)c3ccccc3)c2)cc1,30.6
18,CC(=O)Nc1ccc(S(=O)(=O)Nc2cccc(-n3c(C)nc4ccccc4c3=O)c2)cc1,3.07
19,CSc1ccccc1OCc1cc(C(=O)N2CCCC2c2nonc2C)no1 (stereo not drawn),3.82
20,COc1cccc(N2C(=O)[C@H]3C(C(=O)c4cnccn4)=NN[C@H]3C2=O)c1,13.2
21,COc1ccc(C2=NOC(C(=O)Nc3cccnc3)C2)cc1OC (stereo not drawn),1.17
22,Cc1ccsc1C(=O)OCC(=O)NC1CCCC1,13
23,CN1CC(=O)N(CC(=O)Nc2ccc(Br)cc2F)C1=O,7.47

row,SMILES,"hERG current change (%, negative = inhibition) at 10uM [%]"
1,CCOC(=O)c1c(C)[nH]c(C)c1S(=O)(=O)NCC1CCN(Cc2ccc(C)cc2)CC1,-60.2
2,O=C(c1ccc2c(c1)OCO2)N1CCN(S(=O)(=O)c2ccccc2)CC1,-20.5
3,Cc1cc(S(=O)(=O)N2CCCCC2)c(C)s1,8.25
4,COc1ccccc1CNC(=O)c1cc(C(C)=O)c[nH]1,25.9
5,Cc1[nH]c2ccccc2c1/C=N/NC(=O)c1cccc(Br)c1,0.234
6,COc1cc(OC)cc(C(=O)NNC(=O)c2ccccc2Br)c1,0.539
7,Cc1ccc2c(c1)cc(C(=O)NCc1ccccc1)n2C,15.5
8,CCCCn1c(N)c(N(C)C(=O)c2ccc(Br)o2)c(=O)[nH]c1=O,0.124
9,Cc1cc(=O)[nH]c(=S)n1-c1ccccc1,11.8
10,CC(C)(CN1CCCC1)NC(=O)C1CCC(=O)N(CCCN2CCOCC2)C1 (stereo not drawn),1.89
11,Cc1ccc(-c2nnc(SCC(=O)N3CCCC3)o2)cc1C,-0.309
12,CN(C)CCNC(=O)Cc1ncc(C(F)(F)F)cc1Cl,16.5
13,Cc1ccc(C(c2nnnn2CCc2ccccc2)N2CCSCC2)cc1 (stereo not drawn),-13.5
14,CC(C)OCCCNc1nc2c(c(=O)n(Cc3ccccc3F)c(=O)n2C)n1C,-28.5
15,O=C(CN1CCN(CC(=O)Nc2ccccc2C(F)(F)F)CC1)Nc1ccccc1F,-30.2
16,Nc1[nH]nc2nc(N3CCOCC3)nc(-c3ccccc3)c12,-22.7
17,CCOC(=O)N1CCN(C(=O)c2cn(C)c3ccc(S(=O)(=O)N4CCOCC4)cc3c2=O)CC1,20
18,COc1ccc(N2C(=O)CC(N3CCN(c4ccc(C(=O)c5cccnc5)cc4)CC3)C2=O)cc1 (stereo not drawn),-48.2
19,CCOC(=O)/C(=N\NC(=O)c1ccccc1)c1ccccc1,-13.4
20,NC(=O)CC(NC(=S)NCc1ccccc1)C(=O)O (stereo not drawn),6.67
21,Cc1cc(C)cc(NC(=O)CCc2c(C)nn(-c3ccc(N4CCCCC4)nn3)c2C)c1,-5.82
